Test results as given in paper PMC4336329 (PLoS ONE, 2015).
Out of some 310,000 compounds screened, about 2,200 (0.71%) showed an effect of 50% or more. The effect is printed as a negative number. Some of the results follow.

target: human ether-à-go-go-related gene (hERG) potassium channel (human, UniProt Q12809); assay: primary screen, population patch clamp on CHO cells stably expressing hERG
Sequence (Q12809 whole entry, looked up): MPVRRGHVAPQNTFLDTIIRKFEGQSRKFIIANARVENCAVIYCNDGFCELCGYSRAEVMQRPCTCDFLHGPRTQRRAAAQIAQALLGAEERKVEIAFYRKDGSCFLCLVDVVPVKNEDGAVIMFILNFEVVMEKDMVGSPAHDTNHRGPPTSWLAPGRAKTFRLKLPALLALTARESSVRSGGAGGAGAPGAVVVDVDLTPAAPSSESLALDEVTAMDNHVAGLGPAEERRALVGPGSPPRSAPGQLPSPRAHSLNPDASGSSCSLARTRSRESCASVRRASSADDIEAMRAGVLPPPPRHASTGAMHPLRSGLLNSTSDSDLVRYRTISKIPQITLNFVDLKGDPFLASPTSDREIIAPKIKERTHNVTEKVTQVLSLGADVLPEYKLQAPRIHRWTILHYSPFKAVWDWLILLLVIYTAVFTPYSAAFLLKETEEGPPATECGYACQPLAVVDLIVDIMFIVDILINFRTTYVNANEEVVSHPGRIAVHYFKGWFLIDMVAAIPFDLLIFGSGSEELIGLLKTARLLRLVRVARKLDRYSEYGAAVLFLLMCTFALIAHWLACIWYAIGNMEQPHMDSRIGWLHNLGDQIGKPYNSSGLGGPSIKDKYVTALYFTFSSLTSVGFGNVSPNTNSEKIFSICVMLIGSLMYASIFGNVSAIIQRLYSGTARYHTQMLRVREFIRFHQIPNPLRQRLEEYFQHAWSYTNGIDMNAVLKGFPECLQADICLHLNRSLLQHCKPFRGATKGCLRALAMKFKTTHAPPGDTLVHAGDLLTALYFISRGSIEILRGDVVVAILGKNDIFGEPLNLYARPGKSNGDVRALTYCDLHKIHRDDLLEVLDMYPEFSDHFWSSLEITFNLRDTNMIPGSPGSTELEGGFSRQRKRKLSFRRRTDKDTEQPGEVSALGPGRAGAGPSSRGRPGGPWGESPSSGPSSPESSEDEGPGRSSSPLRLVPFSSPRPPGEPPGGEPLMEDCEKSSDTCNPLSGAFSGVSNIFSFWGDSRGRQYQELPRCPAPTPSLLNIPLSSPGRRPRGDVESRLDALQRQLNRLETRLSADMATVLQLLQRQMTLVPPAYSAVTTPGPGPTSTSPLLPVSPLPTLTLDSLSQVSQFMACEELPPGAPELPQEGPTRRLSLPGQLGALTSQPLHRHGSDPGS

Structure (SMILES)	hERG current change (%, negative = inhibition) at 1uM
COc1ccc(-c2csc(NC(=O)c3ccccc3S(C)(=O)=O)n2)cc1	8.23%
COc1ccc(C(=O)CCNc2cccc(Cl)c2)cc1	8.05%
CCCc1cc(C(N)=O)c(NC(=O)c2ccoc2C)s1	-2.23%
Cc1nc2nc(C)c(CCC(=O)N3CCc4ccccc43)c(C)n2n1	-36.3%
C/C(CC(=O)Nc1ccc2c(c1)OCCO2)=N\NC(=O)COc1ccc(C)cc1Br	-8.51%
Cc1ccccc1NCc1nnc2n1CCCCC2	2.9%
CC(C)(C)C(=O)Nc1nnc(SCC(=O)Nc2nccs2)s1	16.4%
CCCN(C1CCS(=O)(=O)C1)S(=O)(=O)c1cc(OC)ccc1OC (stereo not drawn)	25.3%
CN(C)c1ccc(C(=O)N(Cc2ccccc2)Cc2ccccc2)cc1	13.7%
COc1cc(C(=O)N/C(=C\c2cn(C)c3ccccc23)C(=O)NCCCO)cc(OC)c1OC	8.06%
COc1ccc(N2CCN(S(=O)(=O)c3ccc4c(c3)NC(=O)CC(=O)N4)CC2)cc1	20.6%
O=C(NCc1cccnc1)[C@@H]1CC=C[C@@H]2CCN(Cc3ccc(Cl)c(Cl)c3)C(=O)[C@@H]21	2.32%
Cc1ccc(NC(=O)/C=C/C(=O)O)c([N+](=O)[O-])c1	-28.8%
COc1ccc(-c2[nH]nc3c2C(c2ccncc2)C(C#N)=C(N)O3)cc1 (stereo not drawn)	17.1%
COc1ccc(C(C(C(=O)c2ccco2)N2CCOCC2)N2CCOCC2)cc1 (stereo not drawn)	9.92%
COc1ccccc1CNC(=O)CN(CCc1ccccc1)S(C)(=O)=O	1.74%
COC1OC(COC(=O)CNC(=O)OC(C)(C)C)C(O)C(O)C1O (stereo not drawn)	6.13%
Cc1cc(Cl)ccc1NC(=S)NCc1ccc(Cl)cc1	8.68%
Nc1nc(NCCCN2CCOCC2)nc(Nc2cccc(Cl)c2)c1[N+](=O)[O-]	2.1%
O=C(NC1(C(F)(F)F)NC(=O)N(Cc2ccccc2)C1=O)c1cccs1 (stereo not drawn)	8.79%
Cc1c(C(=O)NCCCN2CCCC2=O)oc2c(Cl)cccc12	9.95%
CCOc1cc(NC(=S)Nc2ccccc2)c(OCC)cc1NC(=O)c1ccc(OC)cc1	12.7%
CCCc1nc2sc3c(c2c(=O)n1NC(=O)CCCl)CCCC3	3.22%

Structure (SMILES)	hERG current change (%, negative = inhibition) at 1uM
CC(=O)NC1C(OCc2cccc(Br)c2)OC(COC(C)=O)C(OC(C)=O)C1OC(C)=O (stereo not drawn)	-0.735%
COc1ccccc1NC(=O)c1ccccc1NS(C)(=O)=O	-1.51%
CSc1cccc(Nc2ccc(S(=O)(=O)N3CCOCC3)cc2[N+](=O)[O-])c1	5.58%
CC(=O)c1sc(NC(=O)C2CC(=O)N(Cc3ccco3)C2)nc1-c1ccccc1 (stereo not drawn)	-7.26%
C=CCc1cccc(/C=N/n2c(C)nnc2C)c1O	20.8%
Cc1ccc(C(=O)CCC(=O)N2CCC(C(N)=O)CC2)s1	17.8%
COc1cccc(-c2nnc(SCC(=O)N(C(C)C)C(C)C)o2)c1	12.1%
O=C(Nc1ccc(Cl)cc1-c1nc2ccccc2s1)c1ccco1	15.4%
Cc1ccc(CNS(=O)(=O)CCNC(=O)c2ccccc2)cc1	-11%
O=C(CSc1nc2c(sc3ccccc32)c(=O)n1CCCN1CCCC1)NCC1CCCO1 (stereo not drawn)	-19.8%
Cc1nn(-c2ccccc2)c2c1C(c1ccco1)C(C#N)=C(N)O2 (stereo not drawn)	0.884%
COc1ccc(CCn2c(NN=C(C)C)nc3c2c(=O)[nH]c(=O)n3C)cc1	11%
CC(=O)c1ccccc1NS(=O)(=O)c1cccc2nonc12	-32.6%
Nc1nc(-c2ccccc2)nc2sc3c(c12)CCCC3	7.59%
C/C(=N/NS(=O)(=O)c1ccc(C)cc1C)c1c[nH]c2ccccc12	13.9%
Cc1cc(=O)n(Cc2ccccc2)c(O)c1C#N	14.6%
O=C(Cn1ccc(NC(=O)OCc2ccccc2)nc1=O)NCCCN1CCCC1=O	7.66%
Cn1c(N)c(C(=O)c2ccccc2)c(=O)n(C)c1=O	16.2%
Cc1ccc(CC(=O)NCC(c2ccco2)N(C)C)cc1C (stereo not drawn)	8.12%
COc1ccc(NS(=O)(=O)c2cccc(C(=O)NCC(c3ccccc3OC)N3CCCC3)c2)cc1 (stereo not drawn)	-20.1%
Cc1nnc(NC(=O)c2cccc(Br)c2)s1	3.13%
Cn1c(-c2ccc3c(c2)OCO3)cc(=O)c2ccccc21	8.33%
CCOC(=O)c1cc2c(nc1NC(=S)NCc1ccccc1)CCCC2	14.6%

Structure (SMILES)	hERG current change (%, negative = inhibition) at 1uM
NC(=O)c1cc(S(=O)(=O)NCCCc2ccccc2)cs1	10.4%
NC(=O)c1c(NC(=O)c2cccs2)sc2c1CCCCCC2	10.7%
NC(=O)c1ccc(NC(=O)CC23CC4CC(CC(Br)(C4)C2)C3)cc1	16.7%
CN(C)C=Nc1ccc2nn(-c3ccccc3)nc2c1	-15.3%
Cc1ccccc1OCCC(=O)OCC(=O)NCCNC(=O)COC(=O)CCOc1ccccc1C	8.53%
COCCn1c(C)cc(C(=O)CSc2nnc(C3CC3)n2C2CC2)c1C	11.5%
CC12CCC(C(=O)Nc3cccnc3)(CC1=O)C2(C)C (stereo not drawn)	13.3%
COc1ccc(OC)c(/C=N/NC(=O)c2cnccn2)c1	9.74%
COC(=O)N/N=C/c1cn(CC(C)COc2ccccc2)c2ccccc12 (stereo not drawn)	13%
CC(C)(C)c1ccc(C(=O)Nc2nonc2-c2nc3ccccc3[nH]2)cc1	11.8%
CC1(C)CC(=O)C2=C(C1)OC(N)=C(C#N)[C@@]21C(=O)N(CC(N)=O)c2ccccc21	16.7%
CCCN(CCC)CCNc1c(N2CCN(C(=O)OCC)CC2)c(=O)c1=O	0.775%
CCOC(=O)CC1C(=O)NCCN1C(=O)c1cc2c(=O)n3ccccc3nc2s1 (stereo not drawn)	1.9%
Cc1ccc(OCc2n[nH]c(=S)n2-c2ccc(C)cc2)cc1	9.58%
COc1ccc2cc(C(=O)O)ccc2c1	-9.25%
COc1ccc(C(=O)CSc2nnc3ccc(-c4ccccn4)nn23)cc1	14.2%
Cl.OCCNCc1ccc(-c2ccccc2)cc1	-2.86%
Cc1nn(-c2ccccc2)c2nc(C(F)F)cc(C(F)F)c12	14.5%
CCOC(=O)c1ccc(NC(=S)NCc2ccccc2)cc1	15.7%
Cc1ccccc1C(=O)N1CCN(S(=O)(=O)c2cccs2)CC1	7.57%
Cc1ccccc1/[N+]([O-])=C/c1cccs1	8.35%
COc1ccc(S(=O)(=O)N2CCOCC2)cc1NC(=O)COC(=O)CCOc1ccc(C)cc1	-8.47%
O=C(Nc1cc(S(=O)(=O)N2CCOCC2)ccc1O)c1ccc(NS(=O)(=O)c2ccc(Cl)s2)cc1	4.96%

Structure (SMILES)	hERG current change (%, negative = inhibition) at 1uM
CC1CCCCN1C(=O)COc1ccc2ccc(=O)oc2c1 (stereo not drawn)	-4.5%
O=C(c1cccs1)N(Cc1cccc(Cl)c1)C1CCS(=O)(=O)C1 (stereo not drawn)	-8.63%
CC(=O)c1ccc(OCCCC(=O)Nc2cccc(-c3nn[nH]n3)c2)cc1	11.3%
C=CCOc1c(OC)cc(Cl)cc1C1NC(=O)NC(C)=C1C(C)=O (stereo not drawn)	10.4%
COc1ccc(CC(=O)Nc2cccc(-c3ccc4nncn4n3)c2)cc1OC	13.3%
Cc1ccc(-c2nc(=O)[nH]c3ccc(Br)cc23)cc1	11.1%
COc1ccc(C(C#N)c2cnccn2)cc1OC (stereo not drawn)	0.41%
Cc1ccc(N2C(=O)C3C(C2=O)C2C=CC3C23CC3)c([N+](=O)[O-])c1 (stereo not drawn)	0.25%
COCCNC(=O)CSc1ccccc1C(=O)NC1CCSc2ccccc21 (stereo not drawn)	12.8%
C=CCn1c(=O)c(C(=O)Nc2ccc(C)cn2)c(O)c2ccccc21	14.5%
Oc1ccc(C(=S)N2CCN(Cc3ccccc3)CC2)cc1	5.55%
O=C(NCCCCl)C1CC(=O)N(CCc2ccc(F)cc2)C1 (stereo not drawn)	14.6%
Nc1nc(N2CCOCC2)cc(=O)[nH]1	13.3%
Cc1nn(CC(O)COc2ccc3c(c2)CCC3)c(C)c1C (stereo not drawn)	3.89%
O=C(c1ccco1)N1CCN(c2ncnc3c2cnn3-c2ccccc2)CC1	-45.6%
COc1ccc(-c2cc(C(=O)N3CCN(C(c4ccccc4)c4ccccc4)CC3)no2)cc1	15.1%
O=C(O)CCN1/C(=C/C=Nc2ccccc2)Oc2ccccc21	0.654%
CCOc1ncccc1C(=O)OCCN1C(=O)c2ccccc2C1=O	4.04%
CCCc1ccc(OCc2ccc(C(=O)NCc3cccnc3)o2)c(OC)c1	-9.64%
COCCCNC(=O)c1cn(C)c(=O)c2c1c1ccccc1n2C	9.76%
COc1ccc(CC(=O)Nc2ccc(-c3noc(-c4ccc(Cl)cc4)n3)cc2)cc1	12.4%
